Laboratory results from the supplement of paper PMC8728848.
This is one part of the list.

Key:
Assay in all cases: glycan array binding signal (z-score within array); higher = stronger binding
Conditions in all cases: glycan notation: IUPAC condensed, linker removed
[1] = target: GlcNAc(b1-3)Gal(b1-4)GlcNAc(b1-3)Gal(b1-4)GlcNAc(b1-2)Man(a1-3)[GlcNAc(b1-3)Gal(b1-4)GlcNAc(b1-3)Gal(b1-4)GlcNAc(b1-2)Man(a1-6)]Man(b1-4)GlcNAc(b1-4)[Fuc(a1-6)]GlcNAc
How it was run: (§1)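 From the Consortium for Functional Glycomics database, 3228 arrays were curated, keeping only those whose protein sequence was available. Binding is given as a within-array Z-score averaged across arrays sharing a protein sequence and across linkers. Negative Z-scores can be read as non-binding.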

[2] = target: GlcNAc(b1-3)Gal(b1-4)GlcNAc(b1-3)Gal(b1-4)GlcNAc(b1-2)[GlcNAc(b1-3)Gal(b1-4)GlcNAc(b1-3)Gal(b1-4)GlcNAc(b1-6)]Man(a1-6)[GlcNAc(b1-3)Gal(b1-4)GlcNAc(b1-3)Gal(b1-4)GlcNAc(b1-2)Man(a1-3)]Man(b1-4)GlcNAc(b1-4)[Fuc(a1-6)]GlcNAc
How it was run: as §1

[3] = target: GlcNAc(b1-3)Gal(b1-4)GlcNAc(b1-3)Gal(b1-4)GlcNAc(b1-3)Gal(b1-4)GlcNAc(b1-2)Man(a1-3)[GlcNAc(b1-3)Gal(b1-4)GlcNAc(b1-3)Gal(b1-4)GlcNAc(b1-3)Gal(b1-4)GlcNAc(b1-2)Man(a1-6)]Man(b1-4)GlcNAc(b1-4)GlcNAc
How it was run: as §1

[4] = target: GlcNAc(b1-3)Gal(b1-4)GlcNAc(b1-3)Gal(b1-4)GlcNAc(b1-3)Gal(b1-4)GlcNAc(b1-2)Man(a1-3)[GlcNAc(b1-3)Gal(b1-4)GlcNAc(b1-3)Gal(b1-4)GlcNAc(b1-3)Gal(b1-4)GlcNAc(b1-2)Man(a1-6)]Man(b1-4)GlcNAc(b1-4)[Fuc(a1-6)]GlcNAc
How it was run: as §1

[5] = target: GlcNAc(b1-3)Gal(b1-4)GlcNAc(b1-3)Gal(b1-4)GlcNAc(b1-3)Gal(b1-4)GlcNAc(b1-2)[GlcNAc(b1-3)Gal(b1-4)GlcNAc(b1-3)Gal(b1-4)GlcNAc(b1-3)Gal(b1-4)GlcNAc(b1-6)]Man(a1-6)[GlcNAc(b1-3)Gal(b1-4)GlcNAc(b1-3)Gal(b1-4)GlcNAc(b1-3)Gal(b1-4)GlcNAc(b1-2)Man(a1-3)]Man(b1-4)GlcNAc(b1-4)[Fuc(a1-6)]GlcNAc
How it was run: as §1

[6] = target: GlcNAc(b1-3)Gal(b1-4)GlcNAc(b1-3)Gal(b1-4)GlcNAc(b1-3)Gal(b1-4)GlcNAc(b1-3)Gal(b1-4)GlcNAc(b1-2)Man(a1-3)[GlcNAc(b1-3)Gal(b1-4)GlcNAc(b1-3)Gal(b1-4)GlcNAc(b1-3)Gal(b1-4)GlcNAc(b1-3)Gal(b1-4)GlcNAc(b1-2)Man(a1-6)]Man(b1-4)GlcNAc(b1-4)GlcNAc
How it was run: as §1

[7] = target: GlcNAc(b1-3)Gal(b1-4)GlcNAc(b1-3)Gal(b1-4)GlcNAc(b1-3)Gal(b1-4)GlcNAc(b1-3)Gal(b1-4)GlcNAc(b1-2)Man(a1-3)[GlcNAc(b1-3)Gal(b1-4)GlcNAc(b1-3)Gal(b1-4)GlcNAc(b1-3)Gal(b1-4)GlcNAc(b1-3)Gal(b1-4)GlcNAc(b1-2)Man(a1-6)]Man(b1-4)GlcNAc(b1-4)[Fuc(a1-6)]GlcNAc
How it was run: as §1

[8] = target: GlcNAc(b1-3)Gal(b1-4)GlcNAc(b1-3)Gal(b1-4)GlcNAc(b1-3)Gal(b1-4)GlcNAc(b1-3)Gal(b1-4)GlcNAc(b1-2)[GlcNAc(b1-3)Gal(b1-4)GlcNAc(b1-3)Gal(b1-4)GlcNAc(b1-3)Gal(b1-4)GlcNAc(b1-3)Gal(b1-4)GlcNAc(b1-6)]Man(a1-6)[GlcNAc(b1-3)Gal(b1-4)GlcNAc(b1-3)Gal(b1-4)GlcNAc(b1-3)Gal(b1-4)GlcNAc(b1-3)Gal(b1-4)GlcNAc(b1-2)Man(a1-3)]Man(b1-4)GlcNAc(b1-4)[Fuc(a1-6)]GlcNAc
How it was run: as §1

[9] = target: GlcNAc(b1-3)Gal(b1-4)GlcNAc(b1-3)Gal(b1-4)GlcNAc(b1-3)GalNAc
How it was run: as §1

[10] = target: GlcNAc(b1-3)Gal(b1-4)GlcNAc(b1-3)GalNAc
How it was run: as §1

[11] = target: GlcNAc(b1-3)Gal(b1-4)GlcNAc(b1-3)[GlcNAc(b1-3)Gal(b1-4)GlcNAc(b1-3)]GalNAc
How it was run: as §1

[12] = target: GlcNAc(b1-3)Gal(b1-4)GlcNAc(b1-6)[Gal(b1-3)]GalNAc
How it was run: as §1

[13] = target: GlcNAc(b1-3)Gal(b1-4)GlcNAc(b1-6)[GlcNAc(b1-3)Gal(b1-3)]GalNAc
How it was run: as §1

[14] = target: GlcNAc(b1-3)Gal(b1-4)GlcNAc(b1-6)[GlcNAc(b1-3)]Gal(b1-4)GlcNAc
How it was run: as §1

GlcNAc(b1-3)GalNAc = target: GlcNAc(b1-3)GalNAc
How it was run: as §1

GlcNAc(b1-3)Man = target: GlcNAc(b1-3)Man
How it was run: as §1

[15] = target: GlcNAc(b1-3)[GlcNAc(b1-4)][GlcNAc(b1-6)]GlcNAc
How it was run: as §1

[16] = target: GlcNAc(b1-3)[GlcNAc(b1-6)]Gal(b1-4)GlcNAc
How it was run: as §1

[17] = target: GlcNAc(b1-3)[GlcNAc(b1-6)]GalNAc
How it was run: as §1

[18] = target: GlcNAc(b1-4)Gal(b1-4)GlcNAc
How it was run: as §1

GlcNAc(b1-4)GlcNAc = target: GlcNAc(b1-4)GlcNAc
How it was run: as §1

[19] = target: GlcNAc(b1-4)GlcNAc(b1-4)GlcNAc
How it was run: as §1

[20] = target: GlcNAc(b1-4)GlcNAc(b1-4)GlcNAc(b1-4)GlcNAc(b1-4)GlcNAc
How it was run: as §1

B1: GS13455A-bfa-343-25-343 (Bacteroides fragilis) (protein)
chain: KDEIQIVDQDTSWQMDNKYIEEDIREQLGIDPFTDLVYLGYYGNPYTQLEAINDLVNTTLVGKNELSFKVKVTKPYKEDIKVNLMKEDKLVTDFPEMAEGIPLFPSENCTFEGGVLKAGELETTVKLTLKDVEKLNNLSGYVMAIKLTMEGSHEHLAIARTRSSYFVKLNLSIRLDNIDSSNKKIEGKGFNKEISFKSDIRPDKLGSLNDGNFTANNWYTSNANNYLTIILPEKQSLKGFRLDTNTSPSGSYMLKSCRVMVETPDGNWVNHGVFDRKSMDGIAYISFKKPVECTKVRFENMMAFNGRFSVDVNEVTAFR
In the case of B1, the “glycan array binding signal (z-score)” value [1] is reported as 1.01, the “glycan array binding signal (z-score)” value [2] is reported as -0.352 and the “glycan array binding signal (z-score)” value [3] is reported as 0.209. For the same binder, the “glycan array binding signal (z-score)” value [4] was 0.311, the “glycan array binding signal (z-score)” value [5] was 0.758 and the “glycan array binding signal (z-score)” value [6] was -0.258. For the same binder, the “glycan array binding signal (z-score)” value [7] was -0.458, the “glycan array binding signal (z-score)” value [8] was -0.332 and the “glycan array binding signal (z-score)” value [9] was -0.212. The “glycan array binding signal (z-score)” value [10] was -0.438, the “glycan array binding signal (z-score)” value [11] was -0.419 and the “glycan array binding signal (z-score)” value [12] was -0.194. The “glycan array binding signal (z-score)” value [13] was 0.114, the “glycan array binding signal (z-score)” value [14] was 0.674 and the “glycan array binding signal (z-score)” value (GlcNAc(b1-3)GalNAc) was -0.658. The “glycan array binding signal (z-score)” value (GlcNAc(b1-3)Man) was 0.399, the “glycan array binding signal (z-score)” value [15] was 0.234 and the “glycan array binding signal (z-score)” value [16] was 0.499. For the same binder, the “glycan array binding signal (z-score)” value [17] was -0.093, the “glycan array binding signal (z-score)” value [18] was -0.678 and the “glycan array binding signal (z-score)” value (GlcNAc(b1-4)GlcNAc) was -0.293. The “glycan array binding signal (z-score)” value [19] was -0.289 and the “glycan array binding signal (z-score)” value [20] was -0.754.
